Experimental data: the supplement of paper PMC8728848
The other results are listed elsewhere or left out.

Columns and labels:
Test in all cases: glycan array binding signal (z-score within array); higher = stronger binding
Conditions in all cases: glycan notation: IUPAC condensed, linker removed
[1] = target: Gal(b1-4)GlcNAc(b1-3)Gal(b1-4)GlcNAc(b1-3)Gal(b1-4)GlcNAc
Outline: (§1)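 Columns mapping to the same glycan were averaged after glycan names were converted to IUPAC-condensed notation. The data come from 3228 arrays in the Consortium for Functional Glycomics database, limited to those with an available protein sequence. Binding is reported as a within-array Z-score averaged across arrays of one protein sequence and across linkers.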

[2] = target: Gal(b1-4)GlcNAc(b1-3)Gal(b1-4)[Fuc(a1-3)]GlcNAc(b1-3)Gal(b1-4)[Fuc(a1-3)]GlcNAc
Outline: as §1

[3] = target: Gal(b1-4)GlcNAc(b1-3)GalNAc
Outline: as §1

[4] = target: Gal(b1-4)GlcNAc(b1-3)[Gal(b1-4)GlcNAc(b1-6)]Gal(b1-4)GlcNAc
Outline: as §1

[5] = target: Gal(b1-4)GlcNAc(b1-3)[GlcNAc(b1-6)]Gal(b1-4)GlcNAc
Outline: as §1

[6] = target: Gal(b1-4)GlcNAc(b1-6)Gal(b1-4)GlcNAc
Outline: as §1

[7] = target: Gal(b1-4)GlcNAc(b1-6)Gal(b1-4)GlcNAc(b1-6)GalNAc
Outline: as §1

[8] = target: Gal(b1-4)GlcNAc(b1-6)GalNAc
Outline: as §1

[9] = target: Gal(b1-4)GlcNAc(b1-6)[Gal(b1-3)]GalNAc
Outline: as §1

Gal3S(b1-3)GalNAc = target: Gal3S(b1-3)GalNAc
Outline: as §1

Gal3S(b1-3)GlcNAc = target: Gal3S(b1-3)GlcNAc
Outline: as §1

[10] = target: Gal3S(b1-3)[Fuc(a1-4)]GlcNAc
Outline: as §1

Gal3S(b1-4)Glc = target: Gal3S(b1-4)Glc
Outline: as §1

Gal3S(b1-4)Glc6S = target: Gal3S(b1-4)Glc6S
Outline: as §1

Gal3S(b1-4)GlcNAc = target: Gal3S(b1-4)GlcNAc
Outline: as §1

Gal3S(b1-4)GlcNAc6S = target: Gal3S(b1-4)GlcNAc6S
Outline: as §1

[11] = target: Gal3S(b1-4)[Fuc(a1-3)]Glc
Outline: as §1

Gal3S4S(b1-4)GlcNAc = target: Gal3S4S(b1-4)GlcNAc
Outline: as §1

Gal3S6S(b1-4)GlcNAc = target: Gal3S6S(b1-4)GlcNAc
Outline: as §1

Gal3S6S(b1-4)GlcNAc6S = target: Gal3S6S(b1-4)GlcNAc6S
Outline: as §1

Gal4S(b1-4)GlcNAc = target: Gal4S(b1-4)GlcNAc
Outline: as §1

Gal4S6S(b1-4)GlcNAc = target: Gal4S6S(b1-4)GlcNAc
Outline: as §1

Gal6S(b1-4)Glc = target: Gal6S(b1-4)Glc
Outline: as §1

Gal6S(b1-4)Glc6S = target: Gal6S(b1-4)Glc6S
Outline: as §1

Gal6S(b1-4)GlcNAc = target: Gal6S(b1-4)GlcNAc
Outline: as §1

Gal6S(b1-4)GlcNAc6S = target: Gal6S(b1-4)GlcNAc6S
Outline: as §1

GalNAc(a1-3)Gal = target: GalNAc(a1-3)Gal
Outline: as §1

GalNAc(a1-3)GalNAc = target: GalNAc(a1-3)GalNAc
Outline: as §1

GalNAc(b1-3)Gal = target: GalNAc(b1-3)Gal
Outline: as §1

[12] = target: GalNAc(b1-3)Gal(a1-4)Gal(b1-4)GlcNAc
Outline: as §1

GalNAc(b1-3)GalNAc = target: GalNAc(b1-3)GalNAc
Outline: as §1

GalNAc(b1-4)GlcNAc = target: GalNAc(b1-4)GlcNAc
Outline: as §1

Glc(a1-4)Glc = target: Glc(a1-4)Glc
Outline: as §1

Glc(a1-6)Glc(a1-6)Glc = target: Glc(a1-6)Glc(a1-6)Glc
Outline: as §1

Glc(b1-4)Glc = target: Glc(b1-4)Glc
Outline: as §1

Glc(b1-6)Glc = target: Glc(b1-6)Glc
Outline: as §1

GlcA(b1-3)Gal = target: GlcA(b1-3)Gal
Outline: as §1

GlcA(b1-3)GlcNAc = target: GlcA(b1-3)GlcNAc
Outline: as §1

GlcA(b1-6)Gal = target: GlcA(b1-6)Gal
Outline: as §1

[13] = target: GlcNAc(a1-3)Gal(b1-4)GlcNAc
Outline: as §1

[14] = target: GlcNAc(a1-6)Gal(b1-4)GlcNAc
Outline: as §1

[15] = target: GlcNAc(b1-2)Gal(b1-3)GalNAc
Outline: as §1

[16] = target: GlcNAc(b1-2)Man(a1-3)[GlcNAc(b1-2)Man(a1-6)]Man(b1-4)GlcNAc(b1-4)GlcNAc
Outline: as §1

GlcNAc(b1-3)Gal = target: GlcNAc(b1-3)Gal
Outline: as §1

[17] = target: GlcNAc(b1-3)Gal(b1-3)GalNAc
Outline: as §1

GlcNAc(b1-3)Gal(b1-4)Glc = target: GlcNAc(b1-3)Gal(b1-4)Glc
Outline: as §1

[18] = target: GlcNAc(b1-3)Gal(b1-4)GlcNAc
Outline: as §1

[19] = target: GlcNAc(b1-3)Gal(b1-4)GlcNAc(b1-3)Gal(b1-4)GlcNAc
Outline: as §1

GlcNAc(b1-3)GalNAc = target: GlcNAc(b1-3)GalNAc
Outline: as §1

GlcNAc(b1-3)Man = target: GlcNAc(b1-3)Man
Outline: as §1

[20] = target: GlcNAc(b1-3)[GlcNAc(b1-4)][GlcNAc(b1-6)]GlcNAc
Outline: as §1

[21] = target: GlcNAc(b1-3)[GlcNAc(b1-6)]Gal(b1-4)GlcNAc
Outline: as §1

[22] = target: GlcNAc(b1-3)[GlcNAc(b1-6)]GalNAc
Outline: as §1

[23] = target: GlcNAc(b1-4)Gal(b1-4)GlcNAc
Outline: as §1

GlcNAc(b1-4)GlcNAc = target: GlcNAc(b1-4)GlcNAc
Outline: as §1

[24] = target: GlcNAc(b1-4)GlcNAc(b1-4)GlcNAc
Outline: as §1

[25] = target: GlcNAc(b1-4)GlcNAc(b1-4)GlcNAc(b1-4)GlcNAc(b1-4)GlcNAc
Outline: as §1

[26] = target: GlcNAc(b1-4)GlcNAc(b1-4)GlcNAc(b1-4)GlcNAc(b1-4)GlcNAc(b1-4)GlcNAc
Outline: as §1

[27] = target: GlcNAc(b1-4)[GlcNAc(b1-6)]GalNAc
Outline: as §1

[28] = target: GlcNAc(b1-6)Gal(b1-4)GlcNAc
Outline: as §1

B1: NESD (Drosophila melanogaster), NP_610025.1 (protein)
chain: MGHHHHHHSSGVDLGTENLYFQSMMEVFTFEKSYLERLKEAEAVLSWEGAVMPASQVRSEWKSYVELKIEPAGWQAIWKIPRVICEDLKLRYPTIVYGYVEQVIFDELKAVFVVTAVQDSDVHLPESNEVSLVELWPTVQQENAALNVDTTAECIDRLRFFYTHVWMPWDKDYDDDRDWVQQHLQARIQLVCDLSKNRLPRPLALHMRTLLAEAKYIQQRLDYLELDLSDAESDDEAVELNDSVAEPARKQSKAGSANGCLNVSSLPVTDLMCLHLRMAIIRSEFEILENPEMRRAYSELQSNSLKRLRCSSGRTRQSEDLLVERNSISHVVTLPGKLQQQLELLKLAQTLVKPESKVQLSNTLQDVLSICQSNDDILLSPGEHTIKFLEHLNDNGSLRGLTQPEAILSPAADLSLLPVVCSSDEDSTLLVIDGDYTLSELVLDCRHVRRGILLRNGTLTMRGCRLLGDGSSSTQEGIVCMPGASVELKSCLIENFAVGVSMRPKSSAELGSVQFKTCKTGLELLEKSASVNLQGSKCSFENCALGILADGFVLGEQRTEKVLVLNKFSELQRYNEDNLLGNCSFYNCKKNVRVFNESGQLLAQRSHQQLLEDELGGENKENIQLV
glycan array binding signal (z-score) [1]: 0.303 | glycan array binding signal (z-score) [2]: -0.398 | glycan array binding signal (z-score) [3]: 1.15 | glycan array binding signal (z-score) [4]: -0.288 | glycan array binding signal (z-score) [5]: -0.141 | glycan array binding signal (z-score) [6]: -0.226 | glycan array binding signal (z-score) [7]: 0.204 | glycan array binding signal (z-score) [8]: -0.052 | glycan array binding signal (z-score) [9]: -0.481 | glycan array binding signal (z-score) (Gal3S(b1-3)GalNAc): -0.093 | glycan array binding signal (z-score) (Gal3S(b1-3)GlcNAc): 0.565 | glycan array binding signal (z-score) [10]: 0.667 | glycan array binding signal (z-score) (Gal3S(b1-4)Glc): 0.002 | glycan array binding signal (z-score) (Gal3S(b1-4)Glc6S): 0.989 | glycan array binding signal (z-score) (Gal3S(b1-4)GlcNAc): 0.142 | glycan array binding signal (z-score) (Gal3S(b1-4)GlcNAc6S): 0.265 | glycan array binding signal (z-score) [11]: -0.195 | glycan array binding signal (z-score) (Gal3S4S(b1-4)GlcNAc): 0.201 | glycan array binding signal (z-score) (Gal3S6S(b1-4)GlcNAc): 0.381 | glycan array binding signal (z-score) (Gal3S6S(b1-4)GlcNAc6S): 1.17 | glycan array binding signal (z-score) (Gal4S(b1-4)GlcNAc): 0.349 | glycan array binding signal (z-score) (Gal4S6S(b1-4)GlcNAc): 0.471 | glycan array binding signal (z-score) (Gal6S(b1-4)Glc): 0.025 | glycan array binding signal (z-score) (Gal6S(b1-4)Glc6S): 0.976 | glycan array binding signal (z-score) (Gal6S(b1-4)GlcNAc): 0.164 | glycan array binding signal (z-score) (Gal6S(b1-4)GlcNAc6S): 0.078 | glycan array binding signal (z-score) (GalNAc(a1-3)Gal): -0.167 | glycan array binding signal (z-score) (GalNAc(a1-3)GalNAc): -0.092 | glycan array binding signal (z-score) (GalNAc(b1-3)Gal): 0.297 | glycan array binding signal (z-score) [12]: -0.427 | glycan array binding signal (z-score) (GalNAc(b1-3)GalNAc): -0.339 | glycan array binding signal (z-score) (GalNAc(b1-4)GlcNAc): -0.228 | glycan array binding signal (z-score) (Glc(a1-4)Glc): 0.431 | glycan array binding signal (z-score) (Glc(a1-6)Glc(a1-6)Glc): 6.3 | glycan array binding signal (z-score) (Glc(b1-4)Glc): -0.704 | glycan array binding signal (z-score) (Glc(b1-6)Glc): 0.139 | glycan array binding signal (z-score) (GlcA(b1-3)Gal): 0.128 | glycan array binding signal (z-score) (GlcA(b1-3)GlcNAc): 0.025 | glycan array binding signal (z-score) (GlcA(b1-6)Gal): 0.566 | glycan array binding signal (z-score) [13]: -0.595 | glycan array binding signal (z-score) [14]: -0.297 | glycan array binding signal (z-score) [15]: -0.28 | glycan array binding signal (z-score) [16]: -0.272 | glycan array binding signal (z-score) (GlcNAc(b1-3)Gal): 0.579 | glycan array binding signal (z-score) [17]: -0.416 | glycan array binding signal (z-score) (GlcNAc(b1-3)Gal(b1-4)Glc): -0.307 | glycan array binding signal (z-score) [18]: -0.359 | glycan array binding signal (z-score) [19]: -0.277 | glycan array binding signal (z-score) (GlcNAc(b1-3)GalNAc): -0.408 | glycan array binding signal (z-score) (GlcNAc(b1-3)Man): -0.252 | glycan array binding signal (z-score) [20]: -0.256 | glycan array binding signal (z-score) [21]: -0.004 | glycan array binding signal (z-score) [22]: -0.207 | glycan array binding signal (z-score) [23]: -0.079 | glycan array binding signal (z-score) (GlcNAc(b1-4)GlcNAc): -0.326 | glycan array binding signal (z-score) [24]: 0.322 | glycan array binding signal (z-score) [25]: -0.139 | glycan array binding signal (z-score) [26]: 0.068 | glycan array binding signal (z-score) [27]: -0.261 | glycan array binding signal (z-score) [28]: -0.136
